PubChem BioAssay AID2546 (National Center for Advancing Translational Sciences (NCATS), 2010)
Several values for one entry are separate records, joined by “and”; a condition that tells them apart may be missing. Equal values may be shown once. About 11,000 (3.5%) of roughly 310,000 compounds were called active. Inconclusive results, whose numbers are uncertain, are shown with a selection of clear calls. The call rests on the fitted dose curve; in most records, active means well fitted inhibition curve with a large enough effect; inconclusive means small, poorly fitted or top-dose-only effect, or effect the other way; inactive means flat fitted curve, though single readings scatter. Potencies beside an inconclusive call are fits to weak or partial responses and may not hold up.

test: VP16 counterscreen qHTS for inhibitors of ROR gamma transcriptional activity; settings: Drosophila S2 Gal4-VP16 UAS-luciferase, luminescence, 20 h; series mostly up to 53.6 µM;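 further: Gal4-VP16 expression switched on by copper sulfate through the metallothionein promoter; nearly all actives have a fitted effect of over 50% in size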
Potency means the concentration at half of the fitted maximal effect; tags describe the fitted curve by direction and shape.

| SMILES | Potency |
| --- | --- |
| CCOc1ccc2nc(NC(=O)CCn3cccc3)sc2c1 | inconclusive: 15.8 µM [inhibitor, single point] |
| COc1ccc(-c2cc(C(=O)NCCc3ccc(S(N)(=O)=O)cc3)c3ccccc3n2)cc1 | inconclusive: 35.5 µM [inhibitor, single point] |
| Cc1ccc(Sc2ncccc2C(=O)NCc2cc([N+](=O)[O-])ccc2O)c(C)c1 | active: 7.08 µM |
| O=C(CSc1nc(Cc2ccccc2)nc2ccccc12)c1ccc2c(c1)OCCO2 | inconclusive: 10 µM [inhibitor, partial curve, poor fit] |
| CCc1c(C)sc(NC(=S)Nc2cccnc2)c1C(=O)OC | active: 6.31 µM |
| CCOC(=O)Cc1csc(NC(=S)NC(=O)c2ccccc2Br)n1 | active: 3.98 µM |
| CCCC(=O)OC/C(O)=C(\C#N)c1nc2ccccc2[nH]1 | inconclusive: 17.8 µM [inhibitor, single point] |
| Nc1[nH]nc2nc3ccccc3nc12 | inconclusive: 28.2 µM [inhibitor, single point] |
| Fc1ccc2nc(C3CCCCN3Cc3nc(CC4CC4)no3)[nH]c2c1 (stereo not drawn) | inactive |
| C=C(C)C(=O)NNc1ccccc1 | inconclusive: 35.5 µM [inhibitor, single point] |
| Cc1ccc(C)c(N2CCN(S(=O)(=O)c3cc4c(cc3Cl)NC(=O)CO4)CC2)c1 | inactive |
| CCOc1ccc(OCc2ccc(C(=O)NC(C)(C)C)o2)cc1 | inconclusive: 35.5 µM [inhibitor, single point] |
| CCn1c(SCC(=O)Nc2ncc(C(F)(F)F)cc2Cl)nnc1-c1cccc(C)c1 | inconclusive: 22.4 µM [inhibitor, single point] |
| COc1cccc(C2CNC3(CCCC(C)C3)c3[nH]c4ccccc4c32)c1OC (stereo not drawn) | inactive |
| CCc1ccc(NC(=S)Nc2cccc3cnccc23)cc1 | inconclusive: 31.6 µM [inhibitor, single point] |
| CN(C)c1ccc(-c2nc(-n3ccnc3)c3ccccc3n2)cc1 | inconclusive: 35.5 µM [inhibitor, single point] |
| CCN(CC)CCC[C@H](C)Nc1ccnc2cc(Cl)ccc12 | inactive |
| CN1CCN(c2ccc([N+](=O)[O-])c(-n3nc(-c4ccccc4)c4ccccc4c3=O)c2)CC1 | inactive |
| COc1cccc(CN2CCC(C(=O)Nc3ccc(-c4cccc(C)c4)cc3)CC2)c1O | inconclusive: 35.5 µM [inhibitor, single point] |
| Cc1cc(Cl)ccc1OCCCC(=O)N1CCCCC1 | inconclusive: 20 µM [inhibitor, single point] |
| FC(F)Oc1ccc(NC(=S)NCc2ccccc2)cc1 | inconclusive: 35.5 µM [inhibitor, single point] |
| COc1ccc(C(=O)N/N=C/c2ccccc2OC(=O)c2ccccc2)cc1 | active: 5.01 µM |
| O=C(CC(c1ccccc1)c1ccccc1)NCC(O)c1ccc([N+](=O)[O-])cc1 (stereo not drawn) | inconclusive: 17.8 µM [inhibitor, single point] |
| O=Cc1ccc(Sc2nnc(-c3ccccc3)o2)c([N+](=O)[O-])c1 | inconclusive: 25.1 µM [inhibitor, single point] |
| CC(/C=C1\SC(=S)N(NC(=O)c2cccc(O)c2)C1=O)=C\c1ccccc1 | inconclusive: 5.01 µM [activator, single point] |

| SMILES | Potency |
| --- | --- |
| COC(=O)c1ccc(/C=C2/SC(=S)N(CCCC(=O)Nc3ccccn3)C2=O)cc1 | active: 1.78 µM |
| COc1ccc(/C=N/NC(=O)COc2ccccc2-c2ccccc2)cc1 | inconclusive: 35.5 µM [inhibitor, single point] |
| Cc1cc(Nc2ccc(F)cc2F)n2nc(C)nc2n1 | inactive |
| CN(/N=C/c1cc(Cl)cc(Cl)c1O)C(=S)NC(C)(C)C | active: 15.8 µM |
| COc1cc(-c2nc3ccc(N4CCN(C)CC4)cc3[nH]2)cc(OC)c1OC | inconclusive: 35.5 µM [inhibitor, single point] |
| C=C(C)CNC(=S)N/N=C(\C)c1cccc(NC(C)=O)c1 | inconclusive: 35.5 µM [inhibitor, single point] |
| CCCn1nnnc1NCc1ccc(F)cc1 | inactive |
| CCNC(=S)NNC(=S)NCc1ccccc1 | inconclusive: 35.5 µM [inhibitor, single point] |
| Cc1ccc(NC(=O)CCC(=O)NNC(=O)/C=C/C(=O)O)c(C)c1 | inconclusive: 4.47 µM [activator, single point] |
| COc1ccc(C(=O)NCCc2cccc(Cl)c2)cc1OC1CCN(C(C)=O)CC1 | inactive |
| Oc1cnn(-c2ccccc2)c1 | inconclusive: 6.31 µM [activator, partial curve, poor fit] |
| O=S(=O)(c1ccc(NC(=S)N/N=C/c2ccc(Oc3ccccc3)cc2)cc1)N1CCOCC1 | inactive |
| CC(=O)Nc1ccc(Nc2cc(C)nc3c(-c4ccccc4)c(C)nn23)cc1 | inconclusive: 22.4 µM [inhibitor, single point] |
| COc1ccc(CN(C)C(C)C(=O)Nc2ccc([N+](=O)[O-])cc2Cl)cc1OC (stereo not drawn) | inconclusive: 35.5 µM [inhibitor, single point] |
| CCOC(=O)c1sc(NC(=O)c2ccc(S(=O)(=O)N3CCOCC3)cc2)nc1-c1ccccc1 | inactive |
| O=C(Nc1ccccc1)Nc1ccc(C(=O)N2CCCC2)cc1 | inconclusive: 11.2 µM [inhibitor, partial curve] |
| O=S(=O)(Nc1cccc2cccnc12)c1ccccc1O | active: 3.16 µM |
| COc1ccc(Nc2cccccc2=O)cc1 | inactive |
| Cc1nnc(Nc2ccc3c(c2)ncn3C)c2ccccc12 | inconclusive: 25.1 µM [inhibitor, single point] |
| CC(=O)Nc1ccc(-c2cn3ccsc3n2)cc1 | inconclusive: 25.1 µM [inhibitor, single point] |
| CSc1ccccc1NC(=O)C1CC(c2ccccc2O)=NO1 (stereo not drawn) | inconclusive: 35.5 µM [inhibitor, single point] |
| COC(=O)c1ccc(COc2ccc(C)cc2[N+](=O)[O-])o1 | inconclusive: 35.5 µM [inhibitor, single point] |
| CC1CN(c2ccc([N+](=O)[O-])cc2C(=O)N2CCOCC2)CC(C)N1 (stereo not drawn) | inconclusive: 20 µM [inhibitor, partial curve] |
| CC(NC(=S)Nc1ccc(F)cc1)C(c1cccs1)N1CCOCC1 (stereo not drawn) | inconclusive: 15.8 µM [inhibitor, single point] |
| CCNC(=O)Nn1c(-c2ccccc2)nc2ccccc2c1=O | inconclusive: 25.1 µM [inhibitor, partial curve, poor fit] |

| SMILES | Potency |
| --- | --- |
| COc1cccc(/C=N/NC(=O)CNC(=O)/C=C\c2ccccc2)c1O | active: 3.16 µM |
| CCOC(=O)Cc1cc(=O)n2[nH]c(C)c(-c3ccccc3)c2n1 | inconclusive: 31.6 µM [inhibitor, single point] |
| Cc1nn2c(NCc3ccccn3)cc(C(C)C)nc2c1-c1ccccc1 | active: 0.631 µM |
| O=C(CCN1CCc2ccccc21)c1ccc2c(c1)OCCO2 | active: 11.2 µM |
| Cc1cccc(CN2CCN(C(=S)Nc3ccccc3)CC2)c1 | inconclusive: 35.5 µM [inhibitor, single point] |
| CCN(CC)C(=O)CSC(=Nc1ccccc1F)NC#N | inconclusive: 35.5 µM [inhibitor, single point] |
| CCOC(=O)C1CCN(C2CCN(Cc3nc(-c4ccccc4)no3)CC2)CC1 | inconclusive: 35.5 µM [inhibitor, single point] |
| Cc1ccc(NC(=O)C(NC2CCCC2)c2ccccc2)cc1Cl (stereo not drawn) | inactive |
| Cc1ccccc1NC(=O)c1ccc2c(c1)N(C)CCS2 | inconclusive: 7.08 µM [inhibitor, full curve, poor fit] |
| N#CCOc1ccc2oc(-c3ccco3)cc(=O)c2c1 | inactive |
| S=C(Nc1ccc(Cl)cc1)N1CCCCC1 | inconclusive: 22.4 µM [inhibitor, single point] |
| Cc1ccc(NC(=O)Nc2ccc3c(c2)OCO3)cc1F | inconclusive: 1.78 µM [activator, partial curve] |
| COc1cc(C(CCN2CCCCC2)c2c(OC)cc(OC)c3c(-c4ccccc4)cc(=O)oc23)cc(OC)c1OC (stereo not drawn) | inconclusive: 11.2 µM [inhibitor, partial curve] and inconclusive: 17.8 µM [inhibitor, partial curve, poor fit] |
| Cc1c(/C=N/Nc2ccc(C(=O)O)cc2)c2ccccc2n1C | inconclusive: 14.1 µM [inhibitor, single point] |
| CCN(CC)S(=O)(=O)c1cc(Cl)ccc1OC | inactive |
| O=C(c1ccc2nc(N3CCOCC3)sc2c1)N1CCC(Cc2ccccc2)CC1 | active: 0.224 µM |
| N#Cc1c2ccc(OCC(=O)NCc3ccco3)cc2n2ccccc12 | inactive |
| O=C(N/N=C/c1c(O)ccc2ccccc12)c1cccnc1 | active: 12.6 µM |
| COc1ccc2sc(NCc3ccccc3)nc2c1 | inconclusive: 0.794 µM [inhibitor, full curve] |
| O=[N+]([O-])c1ccc(N2CCN(C(=S)Nc3ccc(F)cc3)CC2)cc1 | inconclusive: 17.8 µM [inhibitor, single point] |
| Cc1ccc(C(=O)N/C(=C\c2ccc(-c3ccc(Br)cc3)o2)C(=O)NCCCN(C)C)cc1 | inconclusive: 22.4 µM [inhibitor, single point] |
| CCNc1oc(-c2ccccc2F)nc1S(=O)(=O)c1ccccc1 | inactive |
| CCCCN(C)S(=O)(=O)c1ccc(C(=O)N=c2sc3cc(NC(C)=O)ccc3n2C)cc1 | inactive |
